Laboratory results: PubChem BioAssay AID651582 (Sanford-Burnham Center for Chemical Genomics, 2012)
Several values for one entry are separate records, joined by “and”; a condition that tells them apart may be missing. Identical values can stand only once. The list shows a part of the results. Further columns of the screen follow, without active or inactive calls. Compounds called inactive in the main read-out are mostly missing here.

test: TAG lipid buildup reduction in H9c2 cells – cell-based, uHTS, fluorescence, primary screen (AID 651582); conditions: Nile Red lipid (TAG) fluorescence, measured here:, at 12.5 µM, cells loaded with 200 µM oleic acid

Row | Structure (SMILES) | DAPI nuclei signal change (viability), lower = more cytotoxic
1 | O=c1c(Br)ccc(Br)cc1Br | -45.4%
2 | C=CCN1C(=O)/C(=C2\SC(N3CCOCC3)=NC2=O)c2cc(Br)ccc21 | 10.4%
3 | COc1ccc(CNC(=O)c2c(C)oc3c2C(=O)c2ccccc2C3=O)cc1 | -43.3%
4 | CCO[C@@H]1OC(C(=O)N2CCN(Cc3ccc4c(c3)OCO4)CC2)=C[C@H](C)[C@H]1CCCO | -32%
5 | CC(C)n1cc(NC(=O)c2cc(-c3ccccc3)on2)cn1 | -11.9%
6 | CCC(C)(C)C1CCC2(CC1)NC(=O)N(CC(=O)NCCc1ccc(OC)c(OC)c1)C2=O (configuration not stated) | -3.8%
7 | CC(=O)c1cccc(-c2ccnc3c2CC(C(=O)NCc2ccco2)O3)c1 (configuration not stated) | -35.9%
8 | CCn1cc([N+](=O)[O-])c(C(=O)N2N=C(c3ccc4ccccc4c3)CC2c2cc(Br)ccc2O)n1 (configuration not stated) | -3.47%
9 | COC(=O)c1cc(NC(=O)c2c(Cl)nc3sccn23)cc(C(=O)OC)c1 | -35.7%
10 | CC1=CC(C)(C)N2C(=O)C3(NCCc4c3[nH]c3ccccc43)c3cc(C)cc1c32 (configuration not stated) | -32.7%
11 | N#CC(C#N)=c1ccc2c(c1)N1C3=C(CCCC3)CC3CCCCC31N=2 (configuration not stated) | -21.3%
12 | COc1cc(OC)c2c(-c3ccccc3)cc(=O)oc2c1C(CCN1CCCCC1)c1ccc2c(c1)OCO2 (configuration not stated) | -22%
13 | CCC(C)(C)NC(=O)C(c1ccc(C)cc1)N(Cc1ccco1)C(=O)CCC(=O)Nc1nccs1 (configuration not stated) | -1.03%
14 | COC(=O)c1ccc(Oc2cc(C)nc(SC)n2)cc1 | -24.8%
15 | Cc1cccc(-c2ccc3[nH]c4c(c3c2)CCN2C[C@@H]([C@H](C)O)[C@@H](N(C)C(=O)Nc3ccc(F)cc3)C[C@@H]42)c1 | -9.31%
16 | Cc1ccccc1Oc1nc(-c2ccccn2)nc2ccccc12 | -19.8%
17 | O=C1NC(=S)S/C1=C\C=C\c1ccc([N+](=O)[O-])o1 | -24.5%
18 | COc1cc2c(c(OC)c1OC)-c1ccc(OC)c(=O)cc1C(NC(=O)c1ccccc1)CC2 (configuration not stated) | -26.8%
19 | CC(C)N=c1cc2n(-c3ccc(Cl)cc3)c3ccccc3nc-2cc1Nc1ccc(Cl)cc1 | -32.7%
20 | Cc1ccc2nc(NCc3ccccc3)[nH]c2c1 | -21.6%
21 | OCCN1CCN(CC(O)COc2ccc(C34CC5CC(CC(C5)C3)C4)cc2)CC1 (configuration not stated) | -39%
22 | CCc1ccc(/C=N/NC(=O)c2cc(C3CC3)nc3ccc(Br)cc23)s1 | -20.8%
23 | CCN1CCN(Cc2ccc(NC(=O)c3ccc(C)c(NC(=O)C(=O)c4c[nH]c5ccccc45)c3)cc2C(F)(F)F)CC1 | -37.1% and -1.92%
24 | NC(=O)c1cc(-c2ccccc2)nc(N2CCOCC2)n1 | -7.13%

Row | Structure (SMILES) | DAPI nuclei signal change (viability), lower = more cytotoxic
25 | COc1ccc(NC(=O)c2nc(C)c(C3(C)CC(c4ccccc4)=NO3)s2)cc1 (configuration not stated) | -32%
26 | CC(C)=CCC/C(C)=C/CNC(=O)C[C@H]1C[C@H](C(=O)N2CCOCC2)[C@@]2(CCC3CCCC3)c3[nH]c4cc(-c5ccco5)ccc4c3CCN2C1=O | 24.9%
27 | CSc1cccc(NC(=S)N(CCCN2CCCC2)Cc2cccn2Cc2ccc(Cl)cc2)c1 | -18.1%
28 | FC(F)(F)c1cc(CCN2CCNC[C@@H]2CC2CCCCC2)cc(C(F)(F)F)c1 | -5.88%
29 | CC1=NN(c2nc3ccccc3[nH]2)C(=O)C1Cc1ccccc1 (configuration not stated) | -13.3%
30 | C=C1C(=O)C=C[C@]2(C)C[C@@H]3OC(=O)[C@](C)(O)[C@H]3C[C@@H]12 | -47.3%
31 | CCC(C)Nc1nc(-c2cccc(OC)c2O)nc2ccccc12 (configuration not stated) | -26%
32 | COc1cc(-c2cnc3c(NC=O)cc(-c4cccc(NC(C)=O)c4)cn23)cc(OC)c1OC | -42.5%
33 | COc1ccc2c(c1)[nH]c1c(=O)n(/N=C/C3C(C)C=C(C)CC3C)c(=O)[nH]c12 (configuration not stated) | -46.7%
34 | COc1ccc2c(c1)c(/C=N/Nc1nc3ccccc3[nH]1)c(C)n2C | -10.3%
35 | O=C(c1cc(-c2ccncc2)nc2c(Cl)cccc12)N1CCN(c2ccccc2F)CC1 | -24.5%
36 | COc1cc2c(c(OC)c1OC)-c1ccc(SC)c(=O)cc1C(NC=O)CC2 (configuration not stated) | -39.5%
37 | CC(C)[C@@H]1CC[C@@H](C)C[C@H]1OC(=O)C[n+]1cc(-c2ccc(Cl)cc2)n2c1CCCCC2 | -26%
38 | CCOc1ccccc1NC(=O)c1cccc(NC(=O)c2ccco2)c1 | -17.1%
39 | COCCCNC(=O)C(=O)Nc1ccc2c(c1)N(S(=O)(=O)c1cccs1)CCC2 | -22.8%
40 | CCOc1cc2c(cc1O)CCC1C2CCC2(C)C(O)CCC12 (configuration not stated) | -26.2%
41 | Cc1ccc(/C=N/NC(=O)Cc2c[nH]c3ccccc23)c(C)c1 | -11.2%
42 | COc1ccccc1-c1cc(C(F)(F)F)nc(S(=O)(=O)CCCC(=O)NC(C)C)n1 | -48.8%
43 | CCN(CC)CC(C)(C)C(=O)/C=C/c1ccc(/C=C/C(=O)C(C)(C)CN(CC)CC)cc1 | -32%
44 | CCC(CC)NCc1ccc2c(c1)c1ccccc1n2CC | -1.03%
45 | O=[N+]([O-])c1ccc(/C=N/Nc2ncccc2[N+](=O)[O-])s1 | -26.9%
46 | COc1ccc(C(C(=O)NC(C)(C)C)N(Cc2cccs2)C(=O)CCC(=O)Nc2cc(C)on2)cc1 (configuration not stated) | -2.74%
47 | Cc1cc(NC(=O)CSc2nc(-c3cccs3)nc3ccccc23)no1 | -38.6%
